The values that follow come from ChEMBL document CHEMBL4888484, “Replenishing the malaria drug discovery pipeline: Screening and hit evaluation of the MMV Hit Generation Library 1 (HGL1) against asexual blood stage Plasmodium falciparum ,using a nano luciferase reporter read-out” (2022).

In general, % Inhibition refers to the drop in the measured response relative to a control, in per cent.

In all, about 150,000 compounds went through this assay and about 540 (0.36%) showed an effect of 50% or more. Some of the results follow.

In this assay the test system is Plasmodium falciparum. Nature of the assay: Primary screen in NF54 nanoGlo assay, in single point, at 2uM, 72h; a lower Z score goes with more inhibition. Format: functional, Erythrocyte. The settings on record: timepoint 72 hour.
For `CCc1nccn1C[C@H](C)N1CC(Oc2ccc(C)cc2)C1`, the “% Inhibition” value was -10% and the Z score was 1.17.
For `O=S(=O)(c1ccc(Cl)cc1)c1cnc2ccccc2c1N1CCN(Cc2ccccc2)CC1`, the “% Inhibition” value is on record as -4% and the Z score was 0.45.
For the molecule `Cc1cccc2c(-c3nc(N(C)C)n(C)n3)c[nH]c12`, the “% Inhibition” value worked out at 6% and the Z score was -0.79.
Turning to `Cc1ccc2cc(CN3C[C@H](O)[C@@H](F)C3)c(N3CCOCC3)nc2c1`, the “% Inhibition” value is reported as -6% and the Z score was determined as 0.82.
On the same counts, the results for `CS(=O)(=O)C[C@H]1CCCCN1C(=O)c1cn2cccnc2n1` are -11% and 1.12.
The matching figures for `C[C@@H]1C[C@@H](NC(=O)C2(C#N)CC23CCCC3)c2ccccc2O1` (some centres undefined): 19% and -2.39.
Turning to `CCN(c1ccc2sc(C(=O)NC)cc2c1)S(=O)(=O)c1ccc(OC)cc1`, the “% Inhibition” value is listed as -6% and the Z score is recorded as 0.74.
With `C[C@@H](CNC(=O)N1CCC2(CCOCC2)C1)N(C)Cc1ccccc1`, the “% Inhibition” value is 0% and the Z score was -0.05.
For the molecule `O=C(NCc1ccc(-c2ccco2)nc1)C1CCOCC1`, the “% Inhibition” value is listed as -7% and the Z score turned out to be 0.86.
For the molecule `Cc1occc1C(=O)NCc1nc2ccccc2s1`, the “% Inhibition” value is on record as -9% and the Z score came out at 1.05.
Turning to `CC1CN(CC(C)(C)O)CCN1C(=O)NC1C2Cc3ccccc3C21` (centres undefined), the “% Inhibition” value is reported as -10% and the Z score was 1.23.
In the case of `CC(C)CCN1CCC(N(Cc2cccnc2)C2CCOCC2)CC1`, the “% Inhibition” value is recorded as 4% and the Z score is -0.5.
The matching figures for `COCCN(C)c1ncnc(N(C)C[C@H]2CCCO2)c1N`: 2% and -0.28.
On the same counts, the results for `CC[C@H]1C=CCN1Cc1c(F)cc(OC)cc1F` are 5% and -0.75.
For `CCc1nn(C)cc1NC(=O)N[C@@H](C)c1nccs1`, the “% Inhibition” value is 1% and the Z score is listed as -0.15.
Consider `O=C(c1cnc(-c2ccsc2)s1)N1CCCCCC1CC(O)c1cccs1` (centres undefined), for which the “% Inhibition” value was -12% and the Z score is on record as 1.97.
As to `O=C(c1cccnc1)N1C[C@H]2CC[C@@H](C1)N(C(=O)c1n[nH]c3ccccc13)C2`, the “% Inhibition” value stood at 5% and the Z score was -0.46.
Consider `Cc1cccc(-c2nc(CN3C[C@H]4CC[C@H]3C4)c(C)o2)c1`, for which the “% Inhibition” value is given as -11% and the Z score was found to be 1.03.
On the same counts, the results for `Cc1cc([C@H](C)NC(=O)c2cnccn2)c(C)s1` are -4% and 0.59.
As to `CC(Cc1cccs1)NC(=O)C1CCCO1` (centres undefined), the “% Inhibition” value was -5% and the Z score is reported as 0.85.
For the molecule `OC1(C#CCN2CCCCC2)c2ccccc2C2CCCC21` (centres undefined), the “% Inhibition” value is 27% and the Z score is -3.06.
On the same counts, the results for `CC(C)(C)OC(=O)NCC=CCNc1ncc(F)cn1` are -18% and 3.38.
With `CCC(=O)N(CCC(c1ccccc1OC)C1CCOC(C)(C)C1)Cc1ccc(OC)cc1` (centres undefined), the “% Inhibition” value is reported as -16% and the Z score is on record as 2.1.
Take `Cc1cnccc1CN1CCN(c2cc(=O)[nH]c(N)n2)CC1`: the “% Inhibition” value is listed as -4% and the Z score stood at 0.77.
As for `Cc1cnc(C)c(N2CCC3(CC2)c2nc[nH]c2CCN3C(=O)C2CCC2)n1`, the “% Inhibition” value was -14% and the Z score is on record as 1.36.
`O=C(Nc1cccc(Cl)c1)c1ccccc1C(=O)Nc1cccc(Cl)c1`: the “% Inhibition” value is given as -12% and the Z score was 1.64.
With `COCc1cccc(CC(=O)NC2CC(C)(C)C2)c1`, the “% Inhibition” value was found to be 2% and the Z score is -0.25.
With `COc1c(C(=O)N2CC3C4CCC(C4)C3C2)[nH]c(=O)[nH]c1=O` (centres undefined), the “% Inhibition” value is reported as -9% and the Z score came out at 1.28.
With `CC(C)c1nc(CCc2cnn(C)c2)n(-c2cccc3cccnc23)n1`, the “% Inhibition” value is reported as -5% and the Z score is recorded as 0.71.
For the molecule `Cc1nccn1CC1(CNC(=O)c2ccnc(-n3cnnc3)c2)CC1`, the “% Inhibition” value was 0% and the Z score is reported as -0.06.
On the same counts, the results for `O=C(NCc1ccccc1F)c1nn(-c2ccccc2)c(=O)c2ccccc12` are 5% and -0.53.
Consider `Cc1nc(NCCc2[nH]nc3c2CCCC3)c2nc(C)oc2n1`, for which the “% Inhibition” value is listed as -6% and the Z score came out at 0.92.
In the case of `Cc1nccc(NC(=O)NCC2CC3C=CC2CC3)n1` (centres undefined), the “% Inhibition” value is on record as 5% and the Z score is given as -0.89.
Consider `Cc1cccc(OCC(=O)N2CCN(c3cc(C)n4cnnc4n3)CC2)c1`, for which the “% Inhibition” value is -3% and the Z score was 0.39.
Take `CC1CCCN(C(=O)C2CS(=O)(=O)CC2C(F)(F)F)CC1` (centres undefined): the “% Inhibition” value is recorded as -5% and the Z score was 0.83.
On to `O=C(Nc1cnc(N2CCCCCC2)nc1)c1cccc(F)c1`, for which the “% Inhibition” value is listed as -22% and the Z score turned out to be 1.93.
For the molecule `O=C(Nc1ccc2cc[nH]c2c1)N[C@H]1CCS(=O)(=O)C1`, the “% Inhibition” value is reported as 14% and the Z score is recorded as -1.39.
Take `CC1=C(C(=O)N2CCCCC2)[C@H](c2ccncc2)n2ncnc2N1`: the “% Inhibition” value came out at 31% and the Z score is -3.52.
Turning to `Cc1cc(C(=O)NCc2n[nH]c(=O)[nH]2)ccc1F`, the “% Inhibition” value is -8% and the Z score was determined as 1.33.
Regarding `COc1ccnc(N2CCN3C(=O)N(C4CCCCC4)C[C@H]3C2)n1`, the “% Inhibition” value was determined as 15% and the Z score is given as -1.8.
On the same counts, the results for `Clc1cc(Cl)cc(OCCN2CCN(Cc3ncon3)CC2)c1` are 33% and -3.69.
`C[C@H](NC(=O)C1(C#N)CCC1)c1cc2ccccc2o1`: the “% Inhibition” value came to 5% and the Z score is -0.76.
